From the supplement of paper PMC4967469
The IC50 comes from the fitted curve, where viability falls to half of the control; a limit (>, <) means that the fit lies beyond the doses tested. AUC is the area under the same curve over the 256-fold range up to the top dose, as a fraction; the more sensitive the line, the further below 1. The top dose, if marked as inferred, comes from the curve model; the source does not state it. Where an entry number is given, a second screen of the drug exists; the two often differ.

compound: NC(=O)[C@@H](CCC(F)(F)F)N(Cc1ccc(-c2ncon2)cc1F)S(=O)(=O)c1ccc(Cl)cc1 [BMS-708163]; experiment: Viability of human cancer cell lines after 72 h of drug (GDSC screen); conditions: screen: GDSC drug entry 205; top dose inferred
Procedure: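 Human cancer cell lines in 384-well plates, medium with 10% serum, drug for 72 h over a 256-fold dose range (nine 2-fold or five 4-fold steps up to the top dose). Adherent lines were fixed and stained with the nucleic acid dye Syto60, suspension lines read with resazurin; signal relative to control wells, capped at 0 and 100%. One two-parameter sigmoid per drug and line, fitted in a mixed model over all curves with the slope shared within a line.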

Row | Cell Line | AUC | IC50
1 | MDA-MB-330 (breast, adherent, top dose 10.24 µM) | 0.985 | > 10.2 µM
2 | MDA-MB-361 (breast, adherent, top dose 10.24 µM) | 0.989 | > 10.2 µM
3 | MDA-MB-415 (breast, adherent, top dose 10.24 µM) | 0.983 | > 10.2 µM
4 | MDA-MB-436 (breast, adherent, top dose 10.24 µM) | 0.983 | > 10.2 µM
5 | MDA-MB-453 (breast, adherent, top dose 2.56 µM) | 0.983 | > 2.56 µM
6 | MDA-MB-468 (breast, adherent, top dose 10.24 µM) | 0.988 | > 10.2 µM
7 | MDST8 (large intestine, adherent, top dose 10.24 µM) | 0.985 | > 10.2 µM
8 | ME-1 (acute myeloid leukaemia, suspension, top dose 10.24 µM) | 0.966 | > 10.2 µM
9 | ME-180 (cervix, adherent, top dose 10.24 µM) | 0.98 | > 10.2 µM
10 | MEG-01 (chronic myeloid leukaemia, suspension, top dose 10.24 µM) | 0.988 | > 10.2 µM
11 | MEL-JUSO (melanoma, adherent, top dose 10.24 µM) | 0.978 | > 10.2 µM
12 | MES-SA (uterus, adherent, top dose 10.24 µM) | 0.992 | > 10.2 µM
13 | MFE-280 (endometrium, adherent, top dose 10.24 µM) | 0.97 | > 10.2 µM
14 | MFE-296 (endometrium, adherent, top dose 10.24 µM) | 0.983 | > 10.2 µM
15 | MFE-319 (endometrium, adherent, top dose 10.24 µM) | 0.989 | > 10.2 µM
16 | MFH-ino (soft tissue, adherent, top dose 10.24 µM) | 0.983 | > 10.2 µM
17 | MFM-223 (breast, adherent, top dose 10.24 µM) | 0.987 | > 10.2 µM
18 | MG-63 (osteosarcoma, adherent, top dose 10.24 µM) | 0.984 | > 10.2 µM
19 | MHH-ES-1 (Ewing sarcoma, adherent, top dose 10.24 µM) | 0.984 | > 10.2 µM
20 | MHH-NB-11 (neuroblastoma, adherent, top dose 10.24 µM) | 0.975 | > 10.2 µM
21 | MHH-PREB-1 (B-cell leukaemia, suspension, top dose 10.24 µM) | 0.989 | > 10.2 µM
22 | MIA-PaCa-2 (pancreas, adherent, top dose 10.24 µM) | 0.985 | > 10.2 µM
23 | MKN1 (stomach, adherent, top dose 10.24 µM) | 0.986 | > 10.2 µM

Row | Cell Line | AUC | IC50
24 | MKN28 (stomach, adherent, top dose 10.24 µM) | 0.987 | > 10.2 µM
25 | MKN45 (stomach, adherent, top dose 10.24 µM) | 0.982 | > 10.2 µM
26 | ML-1 (thyroid, adherent, top dose 10.24 µM) | 0.984 | > 10.2 µM
27 | ML-2 (acute myeloid leukaemia, suspension, top dose 10.24 µM) | 0.99 | > 10.2 µM
28 | MLMA (hairy cell leukaemia, semi-adherent, top dose 10.24 µM) | 0.981 | > 10.2 µM
29 | MMAC-SF (melanoma, adherent, top dose 10.24 µM) | 0.987 | > 10.2 µM
30 | MN-60 (B-cell leukaemia, suspension, top dose 10.24 µM) | 0.986 | > 10.2 µM
31 | MOG-G-CCM (glioma, adherent, top dose 10.24 µM) | 0.982 | > 10.2 µM
32 | MOG-G-UVW (glioma, adherent, top dose 10.24 µM) | 0.987 | > 10.2 µM
33 | MOLM-13 (acute myeloid leukaemia, suspension, top dose 10.24 µM) | 0.89 | > 10.2 µM
34 | MOLP-8 (myeloma, suspension, top dose 10.24 µM) | 0.987 | > 10.2 µM
35 | MOLT-4 (lymphoblastic leukaemia, suspension, top dose 2.56 µM) | 0.989 | > 2.56 µM
36 | MOLT-13 (T-cell lymphoblastic leukaemia, suspension, top dose 10.24 µM) | 0.897 | 9.98 µM
37 | MONO-MAC-6 (acute myeloid leukaemia, suspension, top dose 10.24 µM) | 0.962 | > 10.2 µM
38 | MPP-89 (mesothelioma, adherent, top dose 10.24 µM) | 0.981 | > 10.2 µM
39 | MRK-nu-1 (breast, suspension, top dose 10.24 µM) | 0.99 | > 10.2 µM
40 | MS751 (cervix, adherent, top dose 10.24 µM) | 0.99 | > 10.2 µM
41 | MS-1 (small cell lung carcinoma, suspension, top dose 10.24 µM) | 0.976 | > 10.2 µM
42 | MSTO-211H (mesothelioma, adherent, top dose 10.24 µM) | 0.991 | > 10.2 µM
43 | MV-4-11 (leukaemia, suspension, top dose 10.24 µM) | 0.99 | > 10.2 µM
44 | MY-M12 (leukaemia, suspension, top dose 10.24 µM) | 0.965 | > 10.2 µM
45 | MZ1-PC (pancreas, adherent, top dose 10.24 µM) | 0.971 | > 10.2 µM
46 | MZ2-MEL (melanoma, adherent, top dose 10.24 µM) | 0.96 | > 10.2 µM

Row | Cell Line | AUC | IC50
47 | MZ7-mel (melanoma, adherent, top dose 10.24 µM) | 0.986 | > 10.2 µM
48 | Mewo (melanoma, adherent, top dose 10.24 µM) | 0.978 | > 10.2 µM
49 | Mo-T (hairy cell leukaemia, suspension, top dose 10.24 µM) | 0.97 | > 10.2 µM
50 | NALM-6 (B-cell leukaemia, suspension, top dose 10.24 µM) | 0.88 | 7.67 µM
51 | NAMALWA (Burkitt lymphoma, suspension, top dose 10.24 µM) | 0.983 | > 10.2 µM
52 | NB1 (neuroblastoma, semi-adherent, top dose 10.24 µM) | 0.974 | > 10.2 µM
53 | NB5 (neuroblastoma, adherent, top dose 10.24 µM) | 0.987 | > 10.2 µM
54 | NB6 (neuroblastoma, adherent, top dose 10.24 µM) | 0.965 | > 10.2 µM
55 | NB7 (neuroblastoma, adherent, top dose 10.24 µM) | 0.974 | > 10.2 µM
56 | NB10 (neuroblastoma, adherent, top dose 10.24 µM) | 0.978 | > 10.2 µM
57 | NB12 (neuroblastoma, adherent, top dose 10.24 µM) | 0.977 | > 10.2 µM
58 | NB13 (neuroblastoma, adherent, top dose 10.24 µM) | 0.988 | > 10.2 µM
59 | NB14 (neuroblastoma, adherent, top dose 10.24 µM) | 0.989 | > 10.2 µM
60 | NB17 (neuroblastoma, adherent, top dose 10.24 µM) | 0.982 | > 10.2 µM
61 | NB69 (neuroblastoma, adherent, top dose 10.24 µM) | 0.973 | > 10.2 µM
62 | NB(TU)1-10 (neuroblastoma, adherent, top dose 10.24 µM) | 0.993 | > 10.2 µM
63 | NB-4 (acute myeloid leukaemia, suspension, top dose 10.24 µM) | 0.985 | > 10.2 µM
64 | NCC021 (kidney, adherent, top dose 10.24 µM) | 0.95 | > 10.2 µM
65 | NCI-H23 (lung adenocarcinoma, adherent, top dose 10.24 µM) | 0.987 | > 10.2 µM
66 | NCI-H28 (mesothelioma, adherent, top dose 10.24 µM) | 0.979 | > 10.2 µM
67 | NCI-H64 (small cell lung carcinoma, suspension, top dose 10.24 µM) | 0.996 | > 10.2 µM
68 | NCI-H69 (small cell lung carcinoma, suspension, top dose 10.24 µM) | 0.985 | > 10.2 µM
69 | NCI-H82 (small cell lung carcinoma, suspension, top dose 10.24 µM) | 0.988 | > 10.2 µM

same assay, conditions: top dose 5 µM; screen: GDSC drug entry 1072; top dose inferred

Row | Cell Line | AUC | IC50
70 | MEL-HO (melanoma, adherent) | 0.924 | > 5 µM
71 | MHH-CALL-2 (B-cell leukaemia, suspension) | 0.995 | > 5 µM
72 | MKN7 (stomach, adherent) | 0.963 | > 5 µM
73 | MM1S (myeloma, suspension) | 0.943 | > 5 µM
74 | MOLM-16 (acute myeloid leukaemia, suspension) | 0.979 | > 5 µM
75 | MOLT-13 (T-cell lymphoblastic leukaemia, suspension) | 0.905 | > 5 µM
76 | MOLT-16 (T-cell lymphoblastic leukaemia, suspension) | 0.97 | > 5 µM
77 | Mewo (melanoma, adherent) | 0.96 | > 5 µM
78 | NCC010 (kidney, adherent) | 0.985 | > 5 µM
79 | NCC021 (kidney, adherent) | 0.63 | 0.759 µM
